# Reference: the supplement of paper PMC3334620
# Whole data set: some 33,000 sequences, median “E-score (-0.5 to 0.5)” near -0.01, cut for the highest 2% near 0.26. This is one part of the list.
# Biological target: Ste12 (UniProt P13574)
# Assay: PBM E-score (8-mer binding enrichment) (E-score (-0.5 to 0.5)); higher = stronger / more preferred TF binding; most listed sequences are background and not binding sites
# Conditions: protein concentration: 200 nM; construct: GST-DNA-binding domain
# Method: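 Universal 'all 10-mer' protein binding microarrays (Agilent AMADID 015681) probed with GST-tagged S. cerevisiae TFs (full-length or DBD) made by in vitro transcription/translation (PURExpress), about 100-200 nM. Bound TF was detected with fluorescent anti-GST. Each ungapped 8-mer (which stands for itself and its reverse complement) is scored by the PBM enrichment score (E-score), a modified Wilcoxon-Mann-Whitney statistic from -0.5 to +0.5, computed with the Universal PBM Analysis Suite. Scale: above 0.35 generally sequence-specific binding.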
row,Sequence,PBM E-score
1,GTGGACAA,0.0673
2,CGAGTGTC,-0.157
3,AAGGGTCC,-0.131
4,CTATTACA,0.181
5,GGGTCGGA,0.0687
6,ACTGGTGG,-0.107
7,GAACCTCA,-0.136
8,CGATCGCC,0.168
9,CCAGCTAC,-0.091
10,GAAGTACA,-0.186
11,AAAGGAGC,-0.00444
12,CACGCTAC,-0.124
13,TAAGCCCA,0.17
14,AACGTCCC,-0.0827
15,AAGACTCC,-0.26
16,ACTAGCCA,-0.102
17,CGGGTGTC,-0.0974
18,CAGCTTTA,0.131
19,AGCGCCTA,-0.00958
20,CACCTGAC,0.13
21,ATAAGCTG,0.00187
22,ATTCGGGG,0.163
23,CGGCTCCC,-0.133
24,CGCGCTTC,0.161
25,GCCAAGAA,0.0608

row,Sequence,PBM E-score
1,TCTCAAAA,0.275
2,CAAGTGGC,0.0152
3,AACCATAT,0.13
4,CGGAGCGA,0.135
5,GGTTAGGA,-0.0563
6,AACAGCTT,-0.00657
7,GGAGTAAA,0.0636
8,ATCGCGCC,0.18
9,GGTGCGGA,0.0146
10,AATGATGT,0.0856
11,GAAGCCTC,-0.191
12,TGAGTCCA,-0.131
13,AGTTCCGG,-0.0125
14,AACTACAA,0.127
15,GCCTTACC,-0.25
16,GCACCGTA,-0.137
17,CTAGTATA,0.0544
18,AGGGTACT,-0.141
19,ATCCAGCG,-0.151
20,CGCACAAA,0.00895
21,ACGAACCT,-0.00746
22,ATTCGGAA,0.125
23,ACTCAGAG,0.0966
24,TAGACATA,-0.0958
25,AGACTCAT,-0.0849

row,Sequence,PBM E-score
1,CAGGATGA,0.0227
2,AACGCTGA,-0.0103
3,TGTAAAAA,0.334
4,TACTTAAA,0.0905
5,CGCAGGAA,-0.0307
6,CCTATCAA,-0.0522
7,CAGCGGCG,0.0568
8,AAGTGTAT,-0.0551
9,CTCGATAC,0.155
10,AGCAAAAG,-0.188
11,CCTAGAAA,0.144
12,AGGTTTTA,0.163
13,CAATATGC,0.00177
14,ATCGCGTC,0.0519
15,ACTTGACT,-0.035
16,CGCTCCTA,-0.12
17,CGCCGCAA,0.0657
18,CGATTGCC,-0.0947
19,AGTGCACG,-0.158
20,CTACTTGC,-0.00958
21,AGAGGACG,-0.0899
22,CCTGCCAA,-0.22
23,CTATACAC,-0.165
24,TATCTCCA,0.129
25,AATCTGTC,0.00918

row,Sequence,PBM E-score
1,GTGAACAA,0.133
2,ACGATACA,0.0755
3,ACTACCCC,-0.164
4,AAACAGGG,0.0615
5,ACCCCGAA,0.158
6,AAGTCCTA,-0.2
7,AAAGACGC,-0.138
8,ACGCTTGC,-0.116
9,AGTGCTAG,-0.00517
10,ATCGGAGA,-0.0544
11,GAACGGCC,-0.0673
12,AACTAGCT,0.0268
13,ATGCGTTC,-0.0191
14,CCGCCGTA,0.152
15,CTGTGACC,-0.0311
16,GCGCCTAC,0.158
17,CCCGTGGA,-0.18
18,GAGGAACA,0.00671
19,CCCCCCAA,-0.166
20,ATTACTTG,0.158
21,ATGCGCTG,-0.12
22,ACACGCAT,0.00268
23,CACCAAAC,0.15
24,GATCCTTA,0.0567
25,AATACGGT,0.0215

row,Sequence,PBM E-score
1,GAACTCTC,-0.136
2,AGAAGGCG,-0.0855
3,CTGGATCC,-0.112
4,GGGTGGGA,0.319
5,ACCAGTTG,-0.145
6,CCCGGTAA,0.0211
7,ACTACTAA,0.0158
8,AATCTTTA,0.2
9,TCCCTGAA,0.0767
10,CTAGTCTA,-0.0753
11,AAATTCGT,0.248
12,AACTCTAT,0.169
13,CCTTGGTC,-0.181
14,CTATAGAG,-0.155
15,CGCCACGC,-0.167
16,AAAAGCTC,-0.193
17,CGTGTAAA,-0.226
18,TAGCAAAA,0.113
19,GTGACCAC,-0.123
20,CCTAGACC,-0.0369
21,CTACCATA,-0.0779
22,AACCAGGA,0.0519
23,AATCGTAA,0.21
24,CCAGCATC,0.0222
25,CATGAATC,0.069

row,Sequence,PBM E-score
1,GAGACCGC,-0.218
2,CGCTTGTC,-0.119
3,GTGCTGTA,-0.13
4,CTGATCTA,0.131
5,AGCAGCGG,-0.18
6,ACCGCTCT,-0.0418
7,CTACCCCA,-0.0909
8,GGAAGACA,-0.0618
9,AATACCAT,-0.0165
10,TAGTCATA,-0.00845
11,AAAAGGTA,-0.0201
12,ACTCCGAA,-0.0771
13,CATGTAAA,0.027
14,ACTATTAG,0.104
15,ATAAAGAA,0.184
16,AACACTGC,0.0761
17,ACTACGGA,-0.151
18,ATTCAAGC,0.131
19,TCTGGTCA,0.0678
20,CAATCATA,0.0856
21,TAAGGGCA,-0.023
22,ACCAGGGC,-0.241
23,ATCGGTAG,-0.0427
24,AGGAGTGG,-0.0209
25,CACTAGGC,-0.0023

row,Sequence,PBM E-score
1,CACCAAAA,0.216
2,CCAATGGC,-0.168
3,AGTCAGCC,-0.0536
4,GATAAAAC,0.327
5,TACCCGGA,-0.0492
6,CCGAGTCA,0.0594
7,AGCCACGC,-0.12
8,CAAGGGCC,-0.209
9,ATAGTTTG,0.171
10,AAGTTCCA,0.00201
11,AAAACCCC,0.0914
12,TCTACACA,-0.0878
13,AATCCTAG,-0.0895
14,GCCTTGAA,-0.112
15,GCGGTTTA,0.13
16,ATGCGATA,-0.171
17,ATGCGAGG,-0.0381
18,CCCGCAGA,0.0537
19,TCCCCCCA,-0.228
20,CAAATGAA,0.238
21,AGCTAGAA,-0.0198
22,AGCTGAGA,-0.0688
